These results are taken from the RNAGym collection of RNA variant scans (doi:10.7554/elife.90254).

B1: LINE1-mini (parent)
chain: GGCAGAGCUCAACACAGCGUGGCAAAGUGGCUGUGGCUAGACUGCC

The source gives no read counts; variants with many changes may rest on few reads.

In the data set the parent is B1. Nature of the data set: self-cleavage, relative activity (ratio to wild type); higher = more cleavage; in vitro, sequencing; the parent is a self-cleaving ribozyme.
On to G17A G21A G27C, for which the self-cleavage amounted to 0.35.
Then A16G G21C C23A C42G, with 0.
Then G17A C23U G27C, with 0.33; and G17A G29A C46A, with 0.94; and A16U C18A A26U G44A, with 0.02.
Then A16U G19C C45A, with 0.09; and A16C G19C G21U, with 0.38.
For the variant A16C C23G C31A, the self-cleavage was 0.02.
For A16U U20C A24U G44U C45G, the self-cleavage came to 0.05.
Then A16G G21U G29U G30U G40A, with 0.16; and A16U G30A C31U, with 0.01; and G17A G21A C37U, with 0.1.
Then A16C G29A G30A, with 0.05.
Then A16U C18U C31U C42A, with 0.03; and A16C C18G G36A, with 0.14.
For the variant A16G G17A C18U G36A, the self-cleavage is 0.01.
Then G17A C18U A41U, with 0.02; and A16C C18U G22A A25C, with 0.02.
Then A16C U20A C42U, with 0.08; and A16U C37U C46U, with 0.05.
Then A16G G30C C46A, with 0.04; and A16U G40C G44A, with 0.02; and A16G G36A C46U, with 0.01.
For the variant A16C U28C U34G C45A, the self-cleavage came to 0.02.
Then A16G G35A C37U, with 0.02; and G17A G29U U38C, with 0.02; and C15U G17A U20A C37A, with 0.04.
Then G17A G21U G27C U43A, with 0.02; and A16C A25G A39C, with 0.14.
Then G17A G19C C42G, with 0.03.
As to A16C C23U A25C C31A G35C, the self-cleavage is 0.03.
Then G17A A24C C45A, with 0.03; and A16U G19C U32A U38G G44A, with 0.
For the variant C15U C42A C45G, the self-cleavage is 0.01.
Then A16C G36A C46A, with 0.06; and G17A G21C G22A U34A G35C, with 0.03; and G17A C23A U28C, with 0.41.
Consider G17A C31G G35A U43A, for which the self-cleavage turned out to be 0.
Then A16G G22A U32A A41G C45A, with 0.04.
Then G17C A24U C46U, with 0.44.
Then G17A G21U G29U G35A C42A, with 0.05.
In the case of C15U G36A C46A, the self-cleavage was 0.01.
Then A16C C23U A26U U34C C45G, with 0.04.
For the variant A16G U20G G21A G33U, the self-cleavage was 0.02.
Then A16G C31U U38C G44U, with 0.03; and A16U A24C U32A, with 0.07; and A16C G36C C45U, with 0.
Then C15U U32G G36A U38C, with 0.28; and A16C A24U G40C, with 0.02.
Then A16U A25C G29A G35C C42G, with 0.05; and A16C G30U C45G, with 0.01.
Turning to A16C G19A G44C, the self-cleavage amounted to 0.06.
Regarding A16C G30U G40C, the self-cleavage is 0.02.
Then A16G U20A G27U G36A G40C A41U, with 0.01; and A16U G17U G29U U34C, with 0.07.
As for A16C G22A G44C, the self-cleavage came out at 0.01.
Then G17A G27U G33U A41C, with 0.04.
Then G17A C18U C42A, with 0.04.
Then C15U G21U G27U C31U A41G G44C, with 0.03.
A16U G30C A39C C45U: the self-cleavage amounted to 0.04.
Then G17A C18A G22U G27U G35U U38A, with 0.06; and C15U G27C U34A G40U U43G C45G, with 0.02; and A16C G21U A26C C45G, with 0.02.
Then C15U G21A G30U C42U, with 0.05; and A16G G22U A41G, with 0; and G17A C18G G27U G40C, with 0.03.
Then A16C G17A A24U A26C, with 0.02.
As to A16U U20C A25G U28C A41C, the self-cleavage was determined as 0.02.
Then A16U G17C G35U A39C, with 0.03; and A16C G22C C46G, with 0.1; and A16U G27C U43A, with 0.01.
For A16U G30C C46A, the self-cleavage came out at 0.03.
Then A16C A41C G44A, with 0.01; and A16G G17U C37G, with 0; and A16C G35A A39G U43A, with 0.02.
Then C15U C23A G29C G30U U43C, with 0.02; and C15U G21C U32A, with 0.03; and G17A G30U C45U, with 0.28.
Then G17A C23A G33C, with 0.03.
Regarding G17A C31A A39U, the self-cleavage was 0.15.
Then C15U G30C C31A C37A, with 0.09; and C15U G17C G21C U32A G33U, with 0.07; and A16U G22A G40C C46G, with 0.05.
On to G17A G27U G40U, for which the self-cleavage came to 0.05.
Then A16U C18A G27U G35C G40C, with 0.02; and C15U G21U G40C, with 0.02.
A16U C23A A25C: the self-cleavage stood at 0.04.
Then C15U G21A C31G G35C G40C, with 0.06; and A16U C18G U38C, with 0.13.
With C15U G19U G30C, the self-cleavage amounted to 0.07.
Then A16U U43G C45A, with 0.07.
Then C15U G17A G19C G21U G27U G33A A39C, with 0.02.
Then G17A G22A C23A U32C, with 0.02.
Consider A16U G27A G36C, for which the self-cleavage is 0.03.
Then G17A U20C G27A, with 0.02; and G17A A26C G27U, with 0.67.
Then A16G C23U C31G U32A, with 0.02.
As to A16C C23U U28G G30C, the self-cleavage amounted to 0.02.
Then A16U G19C G30U U32A C37G, with 0.
Then A16G G17A A24U U28G, with 0.02.
C15U C37U A41C: the self-cleavage was found to be 0.03.
Then A16U C18A U20A U32G C37A, with 0.03.
Then C15U C18U G30A G40A, with 0.01; and G17A C37U A41U, with 0.03; and A16G C18A A26G G29U G35A G36U, with 0.04.
A16U C31U U32A: the self-cleavage came to 0.61.
Take C15U U20G G40A A41C: the self-cleavage came out at 0.06.
In the case of A16C G44A C45A, the self-cleavage worked out at 0.1.
For A16C G30C C46G, the self-cleavage worked out at 0.07.
Then A16C G22A C23U, with 0.13; and A16U G22U G27C U38A, with 0.47; and A16G U20C U28A G36C, with 0.01.
Then C15U G21A G29U G36A, with 0.08.
Then A16G G27A C31A G36A A39C, with 0.03; and G17A C18G A25C U38C, with 0.02; and C15U U20A A39C, with 0.17.
Take G17A G27U A39G: the self-cleavage was 0.07.
As for G17A G36A U43A, the self-cleavage was 0.06.
A16G C18U A41U G44A: the self-cleavage is 0.05.
Then C15U G35C U43C, with 0.02; and A16C G33C U38C, with 0.
Then A16G C23G G30U G40U, with 0; and C15U U20C A41C, with 0.13.
Then C15U U20A G35A, with 0.06.
A16G C18U A41G: the self-cleavage was found to be 0.09.
Then G17A G22U G29A, with 0.21; and G17A G19U A41U, with 0.05.
Then A16G U34A G36U A39G A41G, with 0.01; and A16U G19A U20C U32A U38A U43A, with 0.01.
Turning to C15U C23U G27U, the self-cleavage turned out to be 2.71.
Then A16U A25C G29U C37G, with 0.06; and A16G G29U G40U, with 0.16.
Then G17A A25G C42U, with 0.07.
Then A16C G22U C46G, with 0.07; and G17A A25U G29C, with 1.64.
As to A16U C31U G35A A41C, the self-cleavage amounted to 0.02.
Then A16G G19C G35U, with 0.01; and A16U C31U G33U, with 0.03; and A16C A39G C46A, with 0.03.
Then A16U A25U G33A U43C, with 0.03; and A16C C23G G40A C45A, with 0.01.
Then A16U G21C A24U, with 0.01; and A16C A25G G30U, with 0.04; and A16U G29U G35A C37U, with 0.16.
With C15U G27U G40C U43G, the self-cleavage was determined as 0.06.
Then C15U C23A C31U U32C G40A G44U, with 0; and G17A U20A G22C, with 0.07; and A16G G30U G33A U34A G36U, with 0.02.
Then A16G U32C G35C C46U, with 0.03.
Then A16G A25C C46U, with 0.32; and G17A U28A U34A, with 0.17.
As to A16C A39G A41C, the self-cleavage was found to be 0.01.
Then C15U G17A G21A G29A U32G A41C, with 0.02; and G17A G29U C37U, with 0.08; and A16C C18U C31G, with 0.01.
Then G17A C37A A39U, with 0.07.
Then G17A G21C G30C U34G, with 0.16; and C15U G17U G22A G40U, with 0.1; and C15U G17A G22C G30U, with 0.15.
On to G17A C23G A24G C46U, for which the self-cleavage was determined as 0.06.
Then G17A A25G C31A, with 0.02; and A16G G27A G35U, with 0.29.
On to C15U G29C C31A A39G, for which the self-cleavage was 0.3.
Then G17A U43C C45G, with 0.03.
Then A16U A26C G30C U38C, with 0.19; and A16C G17A G21A A24C A39U, with 0.01; and G17A C18U U20A G21C C23A C46A, with 0.1.
